Measurements published in PubChem BioAssay AID504832 (National Center for Advancing Translational Sciences (NCATS), 2011).
The whole screen tested about 310,000 compounds, of which about 18,000 (5.8%) were called active. The shares of active, inactive and inconclusive entries below differ from those in the screen. Calls follow the shape of the dose curve; as a rule, active = well fitted inhibition curve with a large enough effect; inconclusive = small, poorly fitted or top-dose-only effect, or another doubt; inactive = no such curve, though single readings can be large or run the other way. No potency is given beside an inconclusive call; the fits are too rough.

Experiment: Primary qHTS for delayed death inhibitors of the malarial parasite plastid, 48 hour incubation
Details: P. falciparum luciferase growth in erythrocytes; series mostly up to 28.7 µM; activity change, negative = inhibition: at the top concentration
Summary of the method: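 A one-generation exposure of luciferase-tagged malaria parasites in RPMI 1640/Albumax erythrocyte culture, 37 C and 5% CO2. Inhibition is inferred from decreased luminescence after adding detection reagent.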
% is scaled to controls: 0 for no effect and ±100 for the full control effect; potency is read from the fitted curve at half-maximal effect; tags tell the direction and shape of the fitted curve.

Structure (SMILES) | activity change, negative = inhibition | Potency
CCc1ccc(OCc2ccc(C(=O)OC)o2)cc1 | inactive: 159% | 
COc1ccc(NC(=O)Nc2ccc(OCc3ccccc3)cc2)cn1 |  | inconclusive [inhibitor, single point]
COCCN(C(=O)COC(=O)C12CC3CC(CC(Cl)(C3)C1)C2)c1c(N)n(Cc2ccccc2)c(=O)[nH]c1=O |  | active: 11.7 µM
COc1cc(OC)c2ccc(=O)oc2c1C(CCN1CCCC(C)C1)c1ccc2c(c1)OCO2 (centres undefined) |  | active: 9.28 µM
COc1ccc(NC(=O)Nc2ccc3c(c2)CCC3)c(OC)c1 | inactive: 30.4% | 
O=C(Nc1ccc(Cl)cc1)c1ccc2c(=O)n3c(nc2c1)CCCCC3 | inactive: 6.1% | 
CCOC(=O)c1cc(NC(=O)c2ccccc2)c(=O)oc1C(F)(F)F |  | inconclusive [inhibitor, partial curve, poor fit]
N/C(Cc1ccc(Cl)cc1)=N\OC(=O)c1ccc2ccccc2c1 |  | inconclusive [inhibitor, single point]
COC(=O)/C(=C\c1cc(OC)c(OC)c(OC)c1)c1nc2ccccc2[nH]1 |  | inconclusive [inhibitor, single point]
c1ccc(CNc2nc(NCc3ccccc3)c3ccccc3n2)cc1 |  | active: 1.17 µM
Clc1ccc(-c2nc3ccncc3[nH]2)cc1 |  | inconclusive [inhibitor, single point]
Cc1cccn2c(=O)c(/C=C(\C#N)C(N)=O)c(N3CCN(Cc4ccc5c(c4)OCO5)CC3)nc12 |  | active: 9.28 µM
Cc1ccc(CN2CCN(C/C(Cl)=C/c3ccccc3)CC2CCO)o1 (centres undefined) | inactive: -28.6% | 
CC(C)CC(=O)NCCNC(=O)c1cc(OCC(F)(F)F)ccc1OCC(F)(F)F | inactive: -1.84% | 
CCOCCCNCc1ccc(OCc2ccccc2Cl)cc1 |  | inconclusive [inhibitor, single point]
Cc1oc2c(CN3CCCCC3C)c(O)ccc2c(=O)c1-c1ccc(Br)cc1 (centres undefined) |  | active: 13.1 µM
Nc1nc(NCC2CCCO2)nc(Nc2cccc(F)c2)c1[N+](=O)[O-] (centres undefined) |  | inconclusive [inhibitor, full curve, poor fit]
CCC(=O)N1c2ccc(S(=O)(=O)CCC(=O)N3CCN(c4ccccc4F)CC3)cc2CC1C (centres undefined) | inactive: -10.7% | 
CCOC(=O)c1ccc(NC(=O)NC2CCN(CC(=O)NCc3ccc4c(c3)OCO4)CC2)cc1 |  | inconclusive [inhibitor, full curve]
COc1ccc(-c2sc(Nc3ccccc3)n[n+]2-c2ccccc2)cc1Br |  | inconclusive [inhibitor, single point]
CC(=O)N(Cc1cc(=O)[nH]c2ccccc12)c1cccc(C)c1 |  | inconclusive [inhibitor, partial curve]
CCOC(=O)N1CCC(N2CCCC(C(=O)c3cc(C)c(OC)c(C)c3)C2)CC1 (centres undefined) |  | inconclusive [inhibitor, single point]

Structure (SMILES) | activity change, negative = inhibition | Potency
O=C(NC(=O)c1ccccc1)OCCN1C(=O)c2ccccc2C1=O |  | inconclusive [inhibitor, partial curve, poor fit]
N#CC1=C(N)OC2=C(C(=O)CCC2)C1C1C=CCCC1 (centres undefined) |  | inconclusive [inhibitor, single point]
O=C(Nc1ccc(C(F)(F)F)cc1)C1CCCN1S(=O)(=O)c1cccc2cccnc12 (centres undefined) |  | inconclusive [inhibitor, single point]
CCN(CCCNC(=O)CNC(=O)c1nn(-c2ccc(OC)cc2)c(=O)c2ccccc12)c1cccc(C)c1 |  | inconclusive [inhibitor, single point]
COc1ccccc1NC(=O)COc1ccc(CO)cc1Cl | inactive: 170% | 
CC(=O)N1c2ccccc2C(C)CC12CCCCC2 (centres undefined) | inactive: -22.6% | 
O=C(c1ccc(COc2ccccc2Cl)o1)N1CCN(Cc2ccc3c(c2)OCO3)CC1 |  | inconclusive [inhibitor, partial curve, poor fit]
COc1ccc(C/C(N)=N/OC(=O)c2ccc(Cl)cc2)cc1 |  | inconclusive [inhibitor, partial curve, poor fit]
Cn1c2cc(Br)sc2c2cnn(Cc3ccc(F)cc3F)c(=O)c21 |  | inconclusive [inhibitor, partial curve, poor fit]
Cc1cc(NS(=O)(=O)c2ccc(NC(=O)COc3cc(C)c(Cl)c(C)c3)cc2)no1 |  | inconclusive [inhibitor, partial curve, poor fit]
CCc1ccccc1NC(=O)CSC1=C(C#N)C(c2ccc(O)c(OC)c2)C2=C(CCCC2=O)N1 (centres undefined) |  | inconclusive [inhibitor, single point]
C/C(O)=c1/ccc2cccc3nc(C)nc1c23 |  | inconclusive [inhibitor, single point]
NC(=O)c1ccccc1NC(=O)/C=C/c1cccc(Cl)c1 | inactive: 199% | 
COc1ccccc1NC(=O)c1cc(C(=O)Nc2ccccc2OC)cc([N+](=O)[O-])c1 | inactive: 21.5% | 
O=C(CSc1nnc(-c2n[nH]c3ccccc23)n1-c1ccccc1)Nc1ccccc1Cl |  | inconclusive [inhibitor, partial curve]
Cc1ccc(C)c(NC(=S)N(Cc2ccc(Cl)cc2)Cc2ccc(C(=O)O)cc2)c1 |  | inconclusive [inhibitor, single point]
CCc1ccccc1OCCCCN1CCCCC1 |  | inconclusive [inhibitor, single point]
COCC(C)n1c(SCc2ccc(C(=O)OC)o2)nc2ccccc2c1=O (centres undefined) |  | inconclusive [inhibitor, partial curve]
CCOc1ccc(/C=N/NC(=O)C2CC2)cc1OC | inactive: -4.39% | 
Cc1cc(/C=C(\C#N)C(=O)O)c(C)n1CC1CCCO1 (centres undefined) | inactive: -1.52% | 
O=C(CCc1ccccc1)Nc1ccc(S(=O)(=O)N2CCOCC2)cc1 |  | inconclusive [inhibitor, partial curve, poor fit]
COC(=O)c1cc(NC(=O)c2cc(C(C)(C)C)nn2Cc2cccc(C)c2)ccc1N1CCOCC1 |  | inconclusive [inhibitor, partial curve]
